This is one part of the list.

The assay concerns the target T1, OsWOX13 (Oryza sativa, UniProt Q5QMM3 1-267).
T1 sequence: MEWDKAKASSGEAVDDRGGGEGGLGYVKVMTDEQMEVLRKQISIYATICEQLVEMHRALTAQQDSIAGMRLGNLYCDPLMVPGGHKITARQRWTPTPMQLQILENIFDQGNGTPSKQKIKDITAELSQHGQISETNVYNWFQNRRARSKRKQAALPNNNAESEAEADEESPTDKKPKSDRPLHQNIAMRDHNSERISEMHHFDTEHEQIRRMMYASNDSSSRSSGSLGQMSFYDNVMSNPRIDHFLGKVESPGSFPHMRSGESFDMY
Briefly: protein-binding microarray (RPBM); PBS, 2% BSA, 51.3 ng/ul salmon testes DNA, 50 uM zinc acetate, 200 nM TF, 25 C, 1 h; high values mean tight binding. To be noted: protein: recombinant; tags: N-terminal polyhistidine and DsRed monomer fusion (pET32a); label: CyDye5-dUTP incorporated in the synthesized complementary strand; 3' TTTTT single-stranded linker to array surface; dsDNA, one strand shown. The essentials: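 Binding signal is defined as the fluorescence intensity of each feature in arbitrary units, read on an Axon 4000B scanner. Transcription factors with N-terminal polyhistidine and DsRed fusions came from E. coli BL21-CodonPlus and were purified on Ni–NTA. They were incubated at 200 nM for 1 h at 25 °C on a custom Agilent array that had been made double-stranded with Cy5-dUTP, with 50 µM zinc acetate present, and the array was washed.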
In the case of “ATCACTAATTAGTACTCCAGAACCCATTTTGTGGGAGGACCGGAGTCACCTAGTGCAG”, the binding signal was 34800 fluorescence intensity (a.u.).
“TCCATTTATCCCGATAATTTGTACTACATTTGTATAGGCCCGGAGTCACCTAGTGCAG”: the binding signal is 5670 fluorescence intensity (a.u.).
The same measure for “TAAATTCGTAACTTTAAATTTGGAGCTAATTTTAAGGTTTCGGAGTCACCTAGTGCAG”: 6010 fluorescence intensity (a.u.); for “TTGATTGGCTTGGCTGGCTTTGGCTTCCCTGTTCGATATTCGGAGTCACCTAGTGCAG”: 40200 fluorescence intensity (a.u.).
“CCACTTACATATGTAATTAGTATGTAATTTTCAAATTTACCGGAGTCACCTAGTGCAG”: the binding signal is 10700 fluorescence intensity (a.u.).
The same measure for “TCTGGTCATTTAATCAGTGACACATGGGTGATAATATCGACGGAGTCACCTAGTGCAG”: 4160 fluorescence intensity (a.u.); for “CTTTAATCAGTGCAGTAAATATCATATGTAAATGGCGTAACGGAGTCACCTAGTGCAG”: 3810 fluorescence intensity (a.u.); for “ACCTGAATCATAACAGGTTAATTAACTAAATCGAAAATGACGGAGTCACCTAGTGCAG”: 11900 fluorescence intensity (a.u.).
Regarding “TAGCTTAATTACATAGCTCCTCCTCCTTTCTCCACTGACTCGGAGTCACCTAGTGCAG”, the binding signal is 9260 fluorescence intensity (a.u.).
On to “GTCGACCAATCTTCTTTTCTTGATTTCAATCCATGATCTTCGGAGTCACCTAGTGCAG”, for which the binding signal was 10500 fluorescence intensity (a.u.).
The result for “AAATAATAAATTACTCTGGTGAGTTAACCCATAGACCAGTCGGAGTCACCTAGTGCAG” reads 6030 fluorescence intensity (a.u.); that for “AGTATAAATTAGAATTTAGACTTCCAGTGGATGAAATCATCGGAGTCACCTAGTGCAG”, 17900 fluorescence intensity (a.u.); that for “ACGTTTAATATTTATAATTAATTTTCAAACATCCGATGTGCGGAGTCACCTAGTGCAG”, 19300 fluorescence intensity (a.u.).
The same measure for “GCCAGTGACAGGAACTCGGGAAGCAGTGGAAACAAAGGCCCGGAGTCACCTAGTGCAG”: 3200 fluorescence intensity (a.u.).
“TAAGACTAATTAAGCTGTCATTAGCACATGTGGGTTACTGCGGAGTCACCTAGTGCAG”: the binding signal is 14500 fluorescence intensity (a.u.).
The same measure for “ATTAATCCATAATTAGCAAATGTTTACTGTAGCATCACATCGGAGTCACCTAGTGCAG”: 13800 fluorescence intensity (a.u.).
The result for “AGTTAGTGATTATATGATTAATCTATGGTCCAAATTATCTCGGAGTCACCTAGTGCAG” reads 23900 fluorescence intensity (a.u.).
The same measure for “TAAATAATTTTGCTTGAATAATATTTGAAGGGAGAGAGAGCGGAGTCACCTAGTGCAG”: 7210 fluorescence intensity (a.u.).
As for “ATTAATTTCTTCAAGCTTCTCACTAGTGATGGACTCATCGCGGAGTCACCTAGTGCAG”, the binding signal was 9400 fluorescence intensity (a.u.).
Take “ACTCCAACTAATAATTAACAACAACACACTTCTCATGCATCGGAGTCACCTAGTGCAG”: the binding signal was 6040 fluorescence intensity (a.u.).
The same measure for “CAACACATTGCTGTAATTTGCCATCAGCTTTGGCCATCATCGGAGTCACCTAGTGCAG”: 3490 fluorescence intensity (a.u.).
As for “TATTTAGATTGAGTTATTTTAGAACGAAGGGAGTACGCACCGGAGTCACCTAGTGCAG”, the binding signal was 31800 fluorescence intensity (a.u.).
Regarding “ATAATTGGCAGCTAGGTTACTGTAGCTGTCGTAGATTGGCCGGAGTCACCTAGTGCAG”, the binding signal was 29800 fluorescence intensity (a.u.).
The same measure for “AACTGATCCTAATTAACACTACCCATATACTCTTTTCGTCCGGAGTCACCTAGTGCAG”: 6190 fluorescence intensity (a.u.).
The result for “TTCAGAGAGGCTAATTAGTGTGACAAATCGATCCCGATTGCGGAGTCACCTAGTGCAG” reads 7760 fluorescence intensity (a.u.); that for “AAGTTTAATTATCACATCGAATATACATACGAACATTTGACGGAGTCACCTAGTGCAG”, 7590 fluorescence intensity (a.u.).
The result for “GCTGTATGATTAGATGAAGATGATGATGATCTTAGGATTTCGGAGTCACCTAGTGCAG” reads 24700 fluorescence intensity (a.u.); that for “TGGCACATAATTTGCTTCCGGCCCATATGAATGTTGGCAGCGGAGTCACCTAGTGCAG”, 4770 fluorescence intensity (a.u.); that for “CCAGATTAGCAATCTTCAGGATTTCACTGACAGAGAACATCGGAGTCACCTAGTGCAG”, 26700 fluorescence intensity (a.u.).
In the case of “ACATCGATCAGGTTTGTCAATTTAAATGAAAATCGACGGTCGGAGTCACCTAGTGCAG”, the binding signal was 8600 fluorescence intensity (a.u.).
The same measure for “CAAAACAATCAACGCGTCAACATGGTGATGCTCTGTTTGACGGAGTCACCTAGTGCAG”: 11100 fluorescence intensity (a.u.); for “ATGATTAACATGTTTATAGGCACATCTGATTTATTCTAGCCGGAGTCACCTAGTGCAG”: 36800 fluorescence intensity (a.u.).
The same measure for “TCATCATATTACCAATTTAAACAAGGGACCATTTCCTTGTCGGAGTCACCTAGTGCAG”: 3320 fluorescence intensity (a.u.); for “TGATGATTGGTTTCTTGGCCAATGGTTTGGTTGTTGTTTTCGGAGTCACCTAGTGCAG”: 23100 fluorescence intensity (a.u.); for “TATTTGTTACTATTAAATTTAAAATTTTGGATTCATATTACGGAGTCACCTAGTGCAG”: 3160 fluorescence intensity (a.u.).
The same measure for “TATTGATAAAATTTGATAAGGTTTATTTTAGCTTCCATCTCGGAGTCACCTAGTGCAG”: 4530 fluorescence intensity (a.u.); for “CTCAGTCATCTTACACCTGACTGAATTTAAATTCTACAATCGGAGTCACCTAGTGCAG”: 4380 fluorescence intensity (a.u.).
On to “TTCAACCATAAATTGAATTGAATAGGACGGATGATGGTTACGGAGTCACCTAGTGCAG”, for which the binding signal is 12700 fluorescence intensity (a.u.).
Regarding “TTGTCTTGAATTGAAGATAAACAGGGAATCCTGTTATTCACGGAGTCACCTAGTGCAG”, the binding signal was 6420 fluorescence intensity (a.u.).
Consider “CCCTCAATTAATCGACCCTACGCACCGGAGATGGCTAGACCGGAGTCACCTAGTGCAG”, for which the binding signal was 10300 fluorescence intensity (a.u.).
For “TGGTCCAGAATGATTATATGTGTAATTTTACCGCAAACCTCGGAGTCACCTAGTGCAG”, the binding signal is 5170 fluorescence intensity (a.u.).
The result for “GTTGACAGTTTGACATGTGCTTGTAATTCTTTACCATTCTCGGAGTCACCTAGTGCAG” reads 12300 fluorescence intensity (a.u.).

Values taken from paper PMC7819943, “Rice protein-binding microarrays: a tool to detect cis-acting elements near promoter regions in rice”.
